Some of the results follow.
Each sequence was assayed on PfHDP1 homeodomain (GST-tagged) (assay: gcPBM binding intensity (ln(normalized median fluorescence intensity)); higher = stronger DNA binding).
In short: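 DNA-binding domains from P. falciparum, fused to GST and produced in E. coli, were put on an Agilent 4 × 180k double-stranded probe array for 1 h in 1× PBS holding 1% milk, 0.2 mg/ml BSA, 0.5% salmon testes DNA and 0.03% Triton X-100. Probes were primer-extended, 36 bp long and drawn from intergenic genomic regions, with negative controls included. After Alexa488 anti-GST antibody detection and a 488 nm scan, binding intensity was set as the highest Masliner-normalised natural-log median intensity across replicate spots of either probe orientation.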

Sequence | gcPBM binding intensity (ln)
CGCATACACAGACACACACACACATATAAATATGTA [CACACA_site6444] | 7.16
AATTTTTTATTAAACACACAAACATATATATATATA [CACACA_site1937] | 9.29
TATACCTATAGACACACACACATATAGATTTATATA [CACACA_site7124] | 6.87
TTTTTTCATTATATATAGTATGCAAGTCAAATTAAT [GTGCAC_negctrl_site207] | 6.8
TTTTTTTTTTTGATGGTGCAATATATTAAATAGAAA | 10.4
TATATATATATATAAAGTACATATAATATATATTTG [XGTACX_site5412] | 9.07
ACAAAATTTACAAAATGTACAAAATTTACAAAATAT [XGTACX_site3542] | 6.27
CTATAAAAATATAATTGTACAAATTTTTATATCTTA [XGTACX_site7722] | 6.16
AAAAAAAAAAAAAACATACACACATTGAACTTTTAT [CACACA_site3251] | 6.51
GAAAACGTCTTTAATAGTACACAGTTAAAAAATACA [XGTACX_site8976] | 6.5
GAAATTATGTAAAAAAGTACTAACATACATATATAT [XGTACX_site1794] | 6.54
TTTATCCAATAATCTGGTACACAATAATCATTCATG [XGTACX_site6192] | 6.22
TTTCTATTTATTTCAAGTACTAAAAATATATATAAC [XGTACX_site8203] | 6.46
ATTCATATATACTTCACACACATTTTATCATTCAAA [CACACA_site2468] | 7.03
TTTTTTTACTTAATAGTTCAACATATATCTCAATGT [CACACA_negctrl_site620] | 6.22
TTTTTGTGCATTGATTGTACTTTCTAGGATTATTAA [XGTACX_site7070] | 9.75
TTGAACCTGATAAATACACACAATATATATTTTTTT [CACACA_site2173] | 6.58
GTGATAAATATTATATGTACATATAATATTTATGTC [XGTACX_site8023] | 6.42
TCAAAAACGAGACATGCATGCAATTCATTTTGATTC [TGCATGCA_site212] | 6.5
CCATTCTTACTTTATTGTACTTGAAAATTTTTTTTA [XGTACX_site6160] | 6.7
TAAATACTTTTATGTACACACATATAGATATATATT [CACACA_site5416] | 6.59
TCATATAACACTTGATGTACAAGAATCCAAGTTGCA [XGTACX_site8758] | 6.41

Sequence | gcPBM binding intensity (ln)
ATATGTATAATATATATATATATATATATATATATA [CACACA_negctrl_site623] | 9.39
TATATAATAAGATATGCATGCACATGTAAAATGAAT [TGCATGCA_site499] | 10.2
TTAAAATAGATAAATAGTACTCTTTCCATTATGTAA [XGTACX_site6299] | 6.18
ATAATGTTTTATAATACACACATTAGATATATAAAT [CACACA_site7834] | 6.67
ATATATTTTTTAAACACACACATAAATATTTGTGTA [CACACA_site2879] | 6.8
CAACACTTATTGAAACGTACGCATATAGTTTCTTTT [XGTACX_site8960] | 6.26
AAAGGATATGGACACACACACACATATATATATATA [CACACA_site8686] | 9.24
TTTATTTATATTTATACACACAAACATAATACTACT [CACACA_site7039] | 6.82
TCTAAGTATAAAGACACACAGAATAAAAAAAAATAT [CACACA_site2367] | 6.64
AAAATATATATGTATGTTTATATGTTTATATATATT [XGTACX_negctrl_site337] | 6.14
AAAAAAAAATTTAAGTGTACATTCCATTTTAGTTTA [XGTACX_site5286] | 6.03
AAGAAGCATAAATGTACACACATATTTATATATCAA [CACACA_site6743] | 6.48
TATTTAATATATTTATGTACATATTTATTTATTATT [XGTACX_site524] | 6.57
TATTTTTCTTTATTGGTACACACGAAAAAAAAATTG [CACACA_site3054] | 6.33
TAATATACATAATAATGTACATATTTTCATATATAC [XGTACX_site6913] | 6.32
CACAAAATAAATTAAACACACAACATCAGATATGTA [CACACA_site6529] | 6.24
AACTATTTTATTATATGTACTTACGAATTTATAAAA [XGTACX_site5262] | 6.53
AATGTAGGTTTATTTACACACAAATATAAATATATA [CACACA_site1523] | 6.24
ATAAACTGATGTGTATGTACACATGTAATAATAAAT [XGTACX_site7649] | 6.66
TGTGTTGTAACAAAATGTACGAGCTTGATGTAGAAT [XGTACX_site2293] | 7.15
GGATAATATATTAGAACACACATATATCTGTAAAAA [CACACA_site4266] | 6.49
TAATATAATATATGCACACAAATATGTATATATGTG [CACACA_site2134] | 9.77
